Experimental findings from article PMC4242493 are described below.

The list shows a part of the results. The list includes weakly bound sequences.

The target in the assay is MaxL homodimer (UniProt P61244). Put plainly: universal protein-binding microarray (PBM). Particulars: PBS-based mixture, 10 nM His-tagged protein dimer, 2% milk, 200 ng/uL BSA, 50 ng/uL salmon testes DNA, 0.02% TX-100; detection with Alexa 488 anti-His …; high values mean tight binding; most listed sequences are background and not binding sites; double strand, one strand shown.
Chain of UniProt P61244 (P61244 whole entry): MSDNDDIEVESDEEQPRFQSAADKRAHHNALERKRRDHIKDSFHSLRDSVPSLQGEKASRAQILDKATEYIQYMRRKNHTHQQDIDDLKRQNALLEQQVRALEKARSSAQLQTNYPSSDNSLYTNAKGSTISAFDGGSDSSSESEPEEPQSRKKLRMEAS
With ACTGACCT, the binding signal (normalized occupancy) came to 0.0762.
Then ACCCCGTC, with 0.0728; and GGTGACGA, with 0.0739; and CCCCTAAA, with 0.0758.
Turning to ACCGGGTC, the binding signal (normalized occupancy) amounted to 0.0739.
Then GCAACATA, with 0.0804; and AATGGCTA, with 0.0779; and GACGAAAC, with 0.0653.
Consider ATACGGAT, for which the binding signal (normalized occupancy) was 0.0815.
On to CGAACTGC, for which the binding signal (normalized occupancy) was determined as 0.0726.
Consider CGAACCTA, for which the binding signal (normalized occupancy) was determined as 0.0687.
Take CCGGCGAA: the binding signal (normalized occupancy) is 0.068.
Turning to AAACTTCC, the binding signal (normalized occupancy) stood at 0.0702.
In the case of AATAAGGT it was 0.0762.
Take CGCTGGTA: the binding signal (normalized occupancy) came to 0.0726.
Then CCCATTGC, with 0.0758; and TCGAGCCA, with 0.0692; and CAAGGGGG, with 0.072.
With AACACGGG, the binding signal (normalized occupancy) came to 0.0875.
Turning to ATTCAGTA, the binding signal (normalized occupancy) was determined as 0.0734.
Turning to TCGGTCAA, the binding signal (normalized occupancy) turned out to be 0.0725.
Regarding CGAGTAAC, the binding signal (normalized occupancy) came to 0.0753.
In the case of CGAGATTC it was 0.0733; in that of ACTATGAA, 0.0773; in that of CCCTCCAG, 0.0701.
Then ACAAAGAA, with 0.0776.
As to CGGGTGGA, the binding signal (normalized occupancy) came to 0.0734.
Consider AAATCAGT, for which the binding signal (normalized occupancy) stood at 0.0738.
CAAATTCA: the binding signal (normalized occupancy) turned out to be 0.073.
Regarding GGAAAGCA, the binding signal (normalized occupancy) amounted to 0.0753.
In the case of GCAACGCC it was 0.0765.
Turning to GACCTGAA, the binding signal (normalized occupancy) worked out at 0.0751.
Regarding AAATCCTC, the binding signal (normalized occupancy) was found to be 0.0743.
With AGATAAAT, the binding signal (normalized occupancy) came out at 0.08.
Turning to ATAATCGC, the binding signal (normalized occupancy) is 0.0754.
Turning to AACGTCAC, the binding signal (normalized occupancy) was 0.0801.
Consider TACCTTCA, for which the binding signal (normalized occupancy) was 0.072.
Consider CGACTTTA, for which the binding signal (normalized occupancy) was 0.0687.
On to ACGCTCCC, for which the binding signal (normalized occupancy) was 0.0776.
With ATCGTGTC, the binding signal (normalized occupancy) is 0.0864.
Consider TAGACGCA, for which the binding signal (normalized occupancy) worked out at 0.0758.
AACCACTC: the binding signal (normalized occupancy) worked out at 0.0751.
Regarding TAGGAGGA, the binding signal (normalized occupancy) was 0.074.
Then AAAACATG, with 0.0907; and GCGTCGGA, with 0.074.
Then CAGTCTGC, with 0.0717.
As to GCCCTCCA, the binding signal (normalized occupancy) is 0.0756.
Then ATAGGAGA, with 0.0786; and CTACTCAC, with 0.0784.
For the sequence GAGTGGAC, the binding signal (normalized occupancy) was 0.0761.
Then GGTTGGTA, with 0.0731; and AGGGGTGG, with 0.0848; and CGCGCTTA, with 0.0756.
Consider AGATAGGA, for which the binding signal (normalized occupancy) is 0.0769.
On to CGTAATCA, for which the binding signal (normalized occupancy) is 0.079.
Regarding CGGAACGA, the binding signal (normalized occupancy) was determined as 0.0706.
On to GTAGTGGA, for which the binding signal (normalized occupancy) was found to be 0.0763.
Then CTAGTGTA, with 0.0744; and ATGTGTAC, with 0.0898.
Regarding CTGAACTC, the binding signal (normalized occupancy) came out at 0.0726.
As to ACGCCGAA, the binding signal (normalized occupancy) amounted to 0.0725.
For the sequence AAAAGAAA, the binding signal (normalized occupancy) came out at 0.0762.
Turning to GGAGCTAC, the binding signal (normalized occupancy) came out at 0.0689.
On to GCAAAGTA, for which the binding signal (normalized occupancy) was 0.0737.
As to AGGGCAGG, the binding signal (normalized occupancy) came out at 0.0734.
With CGTGTGAA, the binding signal (normalized occupancy) came out at 0.0833.
In the case of ACGGGAAT it was 0.0768; in that of GTGTTGCA, 0.0825; in that of GCCGTTGA, 0.0691.
In the case of ATCCCTAC it was 0.0804; in that of GTTTGAAA, 0.0753; in that of AACGTCAA, 0.0715.
For AGTTAGAT, the binding signal (normalized occupancy) was found to be 0.0767.
GGGCTGAA: the binding signal (normalized occupancy) is 0.0722.
For the sequence AAATCGCA, the binding signal (normalized occupancy) worked out at 0.0717.
Turning to CCCTTCGC, the binding signal (normalized occupancy) worked out at 0.0711.
With AGATTCAC, the binding signal (normalized occupancy) turned out to be 0.0726.
Consider CACCATGA, for which the binding signal (normalized occupancy) was 0.0873.
Consider CCCCTGGA, for which the binding signal (normalized occupancy) was determined as 0.0742.
Then ATCCCATA, with 0.0876.
With AAAGCGCG, the binding signal (normalized occupancy) was 0.0769.
In the case of GAGATGAA, the binding signal (normalized occupancy) came out at 0.0817.
Consider ACCGGCCA, for which the binding signal (normalized occupancy) came out at 0.0707.
Turning to CGAGTAGC, the binding signal (normalized occupancy) was 0.0702.
For the sequence TGTCCTAA, the binding signal (normalized occupancy) was found to be 0.0734.
Consider TAGGTCCA, for which the binding signal (normalized occupancy) came out at 0.0711.
In the case of AGTAATGC it was 0.0782.
Regarding AGCAACCG, the binding signal (normalized occupancy) worked out at 0.0683.
Take CTCGGGTC: the binding signal (normalized occupancy) was found to be 0.0693.
Then GGCAAGGA, with 0.0673; and CCATCAAC, with 0.0773.
Turning to CTCTAATA, the binding signal (normalized occupancy) came to 0.0784.
As to CTCCGATC, the binding signal (normalized occupancy) came to 0.0746.
Regarding AAAGAATG, the binding signal (normalized occupancy) was 0.0744.
In the case of CTAGTTCC it was 0.0687; in that of AAGAGTTA, 0.0733.
For the sequence CGGCAGAG, the binding signal (normalized occupancy) was 0.068.
Regarding CGCGCATA, the binding signal (normalized occupancy) was determined as 0.0826.
As for AACTAGAG, the binding signal (normalized occupancy) turned out to be 0.0684.
For the sequence ACTCTGGC, the binding signal (normalized occupancy) was determined as 0.067.
In the case of CATCTGCA it was 0.0906; in that of GAAGGACC, 0.0679.
For CCGCTCGC, the binding signal (normalized occupancy) came to 0.069.
On to CCAGAAAC, for which the binding signal (normalized occupancy) was found to be 0.072.
In the case of AAACCAGG it was 0.0764; in that of CTATGCAC, 0.0874; in that of CAGTGGGA, 0.0731.
As to ATCTAAGC, the binding signal (normalized occupancy) stood at 0.0747.
In the case of GTTTCGCA it was 0.0757; in that of ATATAGGG, 0.0809; in that of ACTGAATG, 0.0733.
Then GGTCTAAA, with 0.0723.
Take GGCTTCCA: the binding signal (normalized occupancy) was 0.0728.
Regarding GGATACTA, the binding signal (normalized occupancy) was 0.0764.
ACTCAAGG: the binding signal (normalized occupancy) worked out at 0.0711.
In the case of CACGCCTC it was 0.0974.
Consider CCGGGGAG, for which the binding signal (normalized occupancy) stood at 0.0725.
As for ATGGATTA, the binding signal (normalized occupancy) turned out to be 0.0792.
With GACATCGA, the binding signal (normalized occupancy) was 0.0739.
For the sequence AACTAGTT, the binding signal (normalized occupancy) was 0.0666.
AAAGGGGA: the binding signal (normalized occupancy) worked out at 0.0742.
Consider CCTCCGAG, for which the binding signal (normalized occupancy) was found to be 0.0716.
As for CTTGTAGC, the binding signal (normalized occupancy) was 0.072.
CATCCCGA: the binding signal (normalized occupancy) was found to be 0.0791.
Take ATGCGATA: the binding signal (normalized occupancy) came to 0.0794.
As to AGGTTAAG, the binding signal (normalized occupancy) is 0.0724.
Consider CGGGTGGC, for which the binding signal (normalized occupancy) was 0.0775.
With CTTTTCCA, the binding signal (normalized occupancy) came to 0.0782.
AATCGAGA: the binding signal (normalized occupancy) is 0.0714.
Take CAGGTAAA: the binding signal (normalized occupancy) worked out at 0.0783.
For GCATACGC, the binding signal (normalized occupancy) was determined as 0.0779.
Take GTGTCAAA: the binding signal (normalized occupancy) turned out to be 0.0809.
As to ACTACAGC, the binding signal (normalized occupancy) worked out at 0.0783.
As to CGGACTTA, the binding signal (normalized occupancy) turned out to be 0.07.
Take CTATGAAC: the binding signal (normalized occupancy) came out at 0.0747.
Regarding GTCTCCTA, the binding signal (normalized occupancy) is 0.0763.
On to GGCATGTA, for which the binding signal (normalized occupancy) is 0.0812.
Consider AAGTCTAC, for which the binding signal (normalized occupancy) turned out to be 0.0727.
As for ACGGAATG, the binding signal (normalized occupancy) was found to be 0.0778.
In the case of CTACGCAG, the binding signal (normalized occupancy) amounted to 0.0715.
Then CGTTCCGC, with 0.075.
CTGACGTA: the binding signal (normalized occupancy) was determined as 0.0683.
In the case of ACTGCTCA it was 0.0693.
In the case of CATCTCCA it was 0.08.
With CTATTGCA, the binding signal (normalized occupancy) was determined as 0.0774.
Then CGCTTCAC, with 0.0722; and CGCTAATC, with 0.0771; and ACTCTGAT, with 0.0719.
Then AACACTCC, with 0.0751; and GCTATACA, with 0.0815; and CTTAGCGC, with 0.0686.
Turning to AAGCTCTC, the binding signal (normalized occupancy) was 0.0729.
With ACTGTATC, the binding signal (normalized occupancy) turned out to be 0.0799.
Turning to CGCGCAGC, the binding signal (normalized occupancy) turned out to be 0.0664.
As to CATTCGGC, the binding signal (normalized occupancy) was 0.0725.
With CTTGATTC, the binding signal (normalized occupancy) is 0.0768.
ACTACTAA: the binding signal (normalized occupancy) is 0.0777.
In the case of GCAGGGAA it was 0.0771; in that of AGCTGTGA, 0.0758.
As for AATCATTC, the binding signal (normalized occupancy) worked out at 0.0797.
In the case of ATGTTTCA it was 0.082.
As for ATCGGAAT, the binding signal (normalized occupancy) turned out to be 0.0727.
Then TTCCGAAA, with 0.077; and AAAACTAG, with 0.0719; and ACCATAGG, with 0.075.
Then ATAGGATA, with 0.0787.
In the case of CTCGACTC it was 0.0692; in that of AGTATGGC, 0.0857.
On to AGTGCTTA, for which the binding signal (normalized occupancy) came to 0.075.
Consider AAAATAAG, for which the binding signal (normalized occupancy) is 0.0781.
Then AGTGTTAG, with 0.0767; and TATTAGCA, with 0.0774.
